# The supplement of paper PMC11741623
# The list shows a part of the results. Interaction screen of human proteins with wild-type SARS-CoV-2 proteins by split-DHFR complementation in yeast, 1 µg/mL methotrexate. Value = fitness of the pair (three or more lineages) minus that of the viral protein without a human partner, on a scale set by negative (0) and fused positive (1) controls, mean of up to three cultures; higher = more likely to interact. Active = false discovery rate below 0.05 (one-sided t-test) in at least one culture. Nearly all pairs are not hits, and differences among them are mostly noise (correlation between cultures about 0.3); most hits were seen in one culture only. Human sequences are the Swiss-Prot entries looked up by gene name; the clone may be another isoform. NSP2 values were corrected by the authors for a growth advantage. Listed are human proteins with a hit and a random twelfth of the others.
# B1: CEP19, Q96LK0 (protein)
# chain: MMCTAKKCGIRFQPPAIILIYESEIKGKIRQRIMPVRNFSKFSDCTRAAEQLKNNPRHKSYLEQVSLRQLEKLFSFLRGYLSGQSLAETMEQIQRETTIDPEEDLNKLDDKELAKRKSIMDELFEKNQKKKDDPNFVYDIEVEFPQDDQLQSCGWDTESADEF
# B2: BCAS2, O75934 (protein)
# chain: MAGTGLVAGEVVVDALPYFDQGYEAPGVREAAAALVEEETRRYRPTKNYLSYLTAPDYSAFETDIMRNEFERLAARQPIELLSMKRYELPAPSSGQKNDITAWQECVNNSMAQLEHQAVRIENLELMSQHGCNAWKVYNENLVHMIEHAQKELQKLRKHIQDLNWQRKNMQLTAGSKLREMESNWVSLVSKNYEIERTIVQLENEIYQIKQQHGEANKENIRQDF
# B3: MESP2, Q0VG99 (protein)
# chain: MAQSPPPQSLLGHDHWIFAQGWGWAGHWDSTSPASSSDSSGSCPCDGARGLPQPQPPSCSSRAAEAAATTPRRARTGPAGGQRQSASEREKLRMRTLARALHELRRFLPPSLAPAGQSLTKIETLRLAIRYIGHLSAVLGLSEESLQCRRRQRGDAGSPWGCPLCPDRGPAEAQTQAEGQGQGQGQGQGQGQGQGQGQGQGQGQGRRPGLVSAVLAEASWGSPSACPGAQAAPERLGRGVHDTDPWATPPYCPKIQSPPYSSQGTTSDASLWTPPQGCPWTQSSPEPRNPPVPWTAAPATLELAAVYQGLSVSPEPCLSLGAPSLLPHPSCQRLQPQTPGRCWSHSAEVVPNSEDQGPGAAFQLSEASPPQSSGLRFSGCPELWQEDLEGARLGIFY
# B4: NANOS2, P60321 (protein)
# chain: MQLPPFDMWKDYFNLSQVVWALIASRGQRLETQEIEEPSPGPPLGQDQGLGAPGANGGLGTLCNFCKHNGESRHVYSSHQLKTPDGVVVCPILRHYVCPVCGATGDQAHTLKYCPLNGGQQSLYRRSGRNSAGRRVKR
# B5: GCM1, Q9NP62 (protein)
# chain: MEPDDFDSEDKEILSWDINDVKLPQNVKKTDWFQEWPDSYAKHIYSSEDKNAQRHLSSWAMRNTNNHNSRILKKSCLGVVVCGRDCLAEEGRKIYLRPAICDKARQKQQRKRCPNCDGPLKLIPCRGHGGFPVTNFWRHDGRFIFFQSKGEHDHPKPETKLEAEARRAMKKVNTAPSSVSLSLKGSTETRSLPGETQSQGSLPLTWSFQEGVQLPGSYSGHLIANTPQQNSLNDCFSFSKSYGLGGITDLTDQTSTVDPMKLYEKRKLSSSRTYSSGDLLPPSASGVYSDHGDLQAWSKNAALGRNHLADNCYSNYPFPLTSWPCSFSPSQNSSEPFYQQLPLEPPAAKTGCPPLWPNPAGNLYEEKVHVDFNSYVQSPAYHSPQEDPFLFTYASHPHQQYSLPSKSSKWDFEEEMTYLGLDHCNNDMLLNLCPLR
# Target: SARS-CoV-2 M
# Test: yeast fitness gain over the viral ORF with no human partner (scaled fitness); higher = more likely to interact
# Experimental: (§1)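 Split mouse DHFR complementation in pooled diploid yeast: human ORFeome clones carry one fragment and viral ORFs the other; barcoded lineages compete in 1 µg/mL methotrexate and fitness is read by barcode sequencing in up to three cultures.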
row,Binder,yeast fitness gain
1,B1,inactive: 0.00235
2,B2,inactive: -0.0927
3,B3,inactive: -0.00373
4,B4,inactive: -0.056
5,B5,inactive: -0.0347

# Target: SARS-CoV-2 NSP10
# Test: as above
# Experimental: as §1
row,Binder,yeast fitness gain
1,B1,inactive: -0.0648
2,B2,inactive: 0.0303
3,B3,inactive: 0.566
4,B4,inactive: 0.0998

# Target: SARS-CoV-2 NSP13
# Test: as above
# Experimental: as §1
row,Binder,yeast fitness gain
1,B1,inactive: -0.216
2,B2,inactive: -0.172
3,B3,active: 0.809
4,B4,inactive: 0.0183
5,B5,inactive: 0.0397

# Target: SARS-CoV-2 NSP2
# Test: as above
# Experimental: as §1
row,Binder,yeast fitness gain
1,B1,inactive: -0.191
2,B2,inactive: -0.261
3,B3,inactive: 0.853
4,B4,inactive: -0.11
5,B5,inactive: -0.257

# Target: SARS-CoV-2 NSP6
# Test: as above
# Experimental: as §1
row,Binder,yeast fitness gain
1,B1,inactive: 0.0521
2,B3,inactive: -0.399
3,B4,inactive: -0.116

# Target: SARS-CoV-2 ORF10
# Test: as above
# Experimental: as §1
row,Binder,yeast fitness gain
1,B1,inactive: -0.00333
2,B2,inactive: 0.0998
3,B3,inactive: 0.242
4,B4,inactive: 0.0399
5,B5,inactive: -0.135

# Target: SARS-CoV-2 ORF9B
# Test: as above
# Experimental: as §1
row,Binder,yeast fitness gain
1,B1,inactive: -0.158
2,B2,inactive: 0.0286
3,B3,inactive: 0.528
4,B4,inactive: -0.196
5,B5,inactive: 0.00777

# Target: SARS-CoV-2 S
# Test: as above
# Experimental: as §1
row,Binder,yeast fitness gain
1,B1,inactive: -0.137
2,B2,inactive: -0.0506
3,B3,inactive: -0.0346
4,B4,inactive: 0.023
5,B5,inactive: 0.0138

# Target: SARS-CoV-2 NSP16
# Test: as above
# Experimental: as §1
row,Binder,yeast fitness gain
1,B2,inactive: -0.0014
2,B4,inactive: 0.11
3,B5,inactive: -0.0418

# Target: SARS-CoV-2 NSP8
# Test: as above
# Experimental: as §1
row,Binder,yeast fitness gain
1,B2,inactive: -0.00417
2,B3,inactive: -0.0679
3,B5,inactive: -0.086

# Target: SARS-CoV-2 ORF3B
# Test: as above
# Experimental: as §1
row,Binder,yeast fitness gain
1,B2,inactive: -0.139
2,B3,inactive: 0.141
3,B4,inactive: 0.0262
4,B5,inactive: 0.0145

# Target: SARS-CoV-2 ORF6
# Test: as above
# Experimental: as §1
row,Binder,yeast fitness gain
1,B2,inactive: -0.0561
2,B3,inactive: -0.133
3,B4,inactive: -0.0159
4,B5,inactive: -0.084

# Target: SARS-CoV-2 ORF7A
# Test: as above
# Experimental: as §1
row,Binder,yeast fitness gain
1,B2,inactive: -0.0322
2,B3,inactive: 0.41
3,B4,inactive: -0.0568
4,B5,inactive: -0.103

# Target: SARS-CoV-2 ORF8
# Test: as above
# Experimental: as §1
row,Binder,yeast fitness gain
1,B2,inactive: -0.0436
2,B3,inactive: -0.05
3,B4,inactive: -0.0081
4,B5,inactive: -0.185

# Target: SARS-CoV-2 NSP12
# Test: as above
# Experimental: as §1
row,Binder,yeast fitness gain
1,B3,inactive: 0.285
2,B4,inactive: 0.0999
3,B5,inactive: 0.109

# Target: SARS-CoV-2 NSP14
# Test: as above
# Experimental: as §1
row,Binder,yeast fitness gain
1,B3,inactive: 0.927

# Target: SARS-CoV-2 NSP4
# Test: as above
# Experimental: as §1
row,Binder,yeast fitness gain
1,B3,inactive: 0.802

# Target: SARS-CoV-2 NSP5
# Test: as above
# Experimental: as §1
row,Binder,yeast fitness gain
1,B3,inactive: -0.586
2,B4,inactive: -0.0693
3,B5,inactive: 0.00161

# Target: SARS-CoV-2 NSP7
# Test: as above
# Experimental: as §1
row,Binder,yeast fitness gain
1,B3,inactive: -0.333
2,B4,inactive: 0.00228

# Target: SARS-CoV-2 NSP9
# Test: as above
# Experimental: as §1
row,Binder,yeast fitness gain
1,B3,inactive: -0.131
2,B4,inactive: -0.0283

# Target: SARS-CoV-2 N
# Test: as above
# Experimental: as §1
row,Binder,yeast fitness gain
1,B4,inactive: -0.0733

# Target: SARS-CoV-2 NSP1
# Test: as above
# Experimental: as §1
row,Binder,yeast fitness gain
1,B4,inactive: -0.203
2,B5,inactive: 0.0437

# Target: SARS-CoV-2 ORF3A
# Test: as above
# Experimental: as §1
row,Binder,yeast fitness gain
1,B4,inactive: -0.0455
2,B5,inactive: -0.102

# Target: SARS-CoV-2 ORF7B
# Test: as above
# Experimental: as §1
row,Binder,yeast fitness gain
1,B4,inactive: -0.0522
2,B5,inactive: 0.0394

# Target: SARS-CoV-2 ORF9Bwu (the 73-codon ORF)
# Test: as above
# Experimental: as §1
row,Binder,yeast fitness gain
1,B5,inactive: -0.198
